Results taken from PubChem BioAssay AID504832 (National Center for Advancing Translational Sciences (NCATS), 2011).
The campaign covered roughly 310,000 compounds. About 18,000 (5.8%) were called active. Inconclusive results, whose numbers are uncertain, are shown with a selection of clear calls. The call rests on the fitted dose curve; in most records, active means well fitted inhibition curve with a large enough effect; inconclusive means small, poorly fitted or top-dose-only effect, or another doubt; inactive means no such curve, though single readings can be large or run the other way. No potency is given beside an inconclusive call; the fits are too rough.

Test: Primary qHTS for delayed death inhibitors of the malarial parasite plastid, 48 hour incubation
Conditions: P. falciparum luciferase growth in erythrocytes; series mostly up to 28.7 µM
Summary of the method: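 Compounds are pin-transferred into medium, infected erythrocytes (2% hematocrit, 0.1% parasitemia final) are added, and plates sit one parasite generation at 37 C in 5% CO2. Detection reagent is then added and luminescence measured.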
Potency means the concentration at half of the fitted maximal effect; tags describe the fitted curve by direction and shape.

SMILES	Potency
COC(=O)c1cnc2c(c(C)nn2C)c1OC	inactive
CCn1c(O)c(N=NC(=O)CNC(=O)c2ccccc2F)c2ccccc21	inactive
CCN(CC)S(=O)(=O)c1ccc(N2CCOCC2)c(NC(=O)COc2ccc(OC)cc2)c1	inconclusive [inhibitor, partial curve, poor fit]
COc1ccccc1C(=O)NNC(=O)C1CCN(C(=O)OC(C)(C)C)CC1	inactive
O=C(Cn1cnc2ccccc2c1=O)Nc1nnc(C2CC2)s1	inactive
O=C(CN(C(=O)c1csnn1)c1ccc(Cl)cc1)NC1CCCC1	inactive
COc1cccc(CNC(=O)CCS(=O)(=O)c2cccs2)c1	inactive
COc1ccccc1N=Nc1c(C)[nH][nH]c1=O	inactive
Nc1c(C(=O)N2CCOCC2)sc2nc(N3CCOCC3)c3c(c12)CCCC3	inconclusive [inhibitor, full curve, poor fit]
COCCSc1nnc(NS(=O)(=O)c2ccccc2)s1	inconclusive [inhibitor, partial curve, poor fit]
O=C(Nc1ccncc1)Nc1cccc(F)c1	inconclusive [inhibitor, full curve]
CC(C)c1nc(N2CCN(C(=O)c3ccco3)CC2)c(C#N)c2c1COC(C)(C)C2	inconclusive [inhibitor, full curve, poor fit]
CCOc1ccc(Oc2c(/C=N/NC(=O)COc3ccccc3OC)c(C)nn2-c2ccccc2)cc1	inconclusive [inhibitor, single point]
Cc1cccc(N2CCN(S(=O)(=O)c3c(C)noc3/C=C/N(C)C)CC2)c1C	inconclusive [inhibitor, partial curve]
O=C(Nc1cccc(NC(=O)c2cccs2)c1)c1ccc2c(c1)OCO2	inactive
CC1(C)Cc2ccccc2C(N/N=C/c2ccc(Cl)cc2)=N1	inconclusive [inhibitor, partial curve, poor fit]
CS(=O)(=O)c1ccc2nc(NC(=O)CCC(=O)c3cccs3)sc2c1	inconclusive [inhibitor, single point]
Cc1ccc(S(=O)(=O)N2CCCCC2)cc1NC(=O)CNC(C)c1ccc(Cl)c(Cl)c1 (stereo unspecified)	inconclusive [inhibitor, partial curve, poor fit]
COc1ccc(NC(=S)NCCc2c[nH]c3ccccc23)c(OC)c1	inconclusive [inhibitor, partial curve, poor fit]
CCN(CC)CCCNC(=O)c1cn(CC)c2ccc(S(=O)(=O)N(C)C3CCCCC3)cc2c1=O	inconclusive [inhibitor, partial curve]
COc1ccc(C2=NOC(C(=O)N3CCCc4ccccc43)C2)cc1 (stereo unspecified)	inactive
CC1Cc2cc(/C(O)=C3/C(=O)C(=O)N(CCCn4ccnc4)C3c3ccncc3)ccc2O1 (stereo unspecified)	inactive
COc1ccc(CN(CCCN2CCOCC2)C(=O)Nc2cccc(Cl)c2)cc1OC	inconclusive [inhibitor, single point]
CCCC(=O)Nc1nc2ccc(OC)cc2s1	inactive

SMILES	Potency
CN1N=C(C(C)(C)C)CSC1=Nc1ccc(F)cc1	inconclusive [inhibitor, single point]
COc1cc2nc(COc3ccc(C#N)cc3)n(CC#N)c(=O)c2cc1OC	inconclusive [inhibitor, single point]
C=CCn1c(SCC(=O)Nc2ccc(NC(=O)c3ccco3)c(OC)c2)nnc1-c1ccncc1	active: 13.1 µM
CCC(CO)Nc1nc2ccc(Cl)cc2c2ccccc12 (stereo unspecified)	inactive
COc1ccc(/C=C/C(=O)Nc2ccccc2Cl)cc1S(=O)(=O)N1CCOCC1	active: 10.4 µM
O=C(C1CCCN(c2ncnc3c2nc2n3CCCCC2)C1)N1CCN(c2ccccc2F)CC1 (stereo unspecified)	inconclusive [inhibitor, single point]
C/C(=C\c1ccccc1)CN1CCN(Cc2ccc(C)o2)C(CCO)C1 (stereo unspecified)	inconclusive [inhibitor, single point]
O=C(CSc1ncn[nH]1)N1CCN(S(=O)(=O)c2ccc(Cl)cc2)CC1	inconclusive [inhibitor, partial curve, poor fit]
C=CCn1c(SCc2ccc(C(=O)NCCO)cc2)nc2sc(C)c(C)c2c1=O	inconclusive [inhibitor, single point]
COc1cc(C(F)(F)F)ccc1C(=O)NCCc1ccco1	inactive
CCCCn1nnnc1NCc1cc(Cl)c(OC)c(OC)c1	inconclusive [inhibitor, full curve]
COCCN(C(=O)COC(=O)Cc1ccc(Cl)cc1Cl)c1c(N)n(Cc2ccccc2)c(=O)[nH]c1=O	inconclusive [inhibitor, single point]
COc1cc(CNc2ccc(N3CCOCC3)cc2)ccc1OCC(=O)NC(C)(C)C	inactive
CC(=O)c1cccc(CN2CCC(C(=O)Nc3ccc(Oc4cccnc4)cc3)CC2)c1	inconclusive [inhibitor, full curve, poor fit]
CC(Sc1nnc(NC2CCCCC2)s1)C(=O)Nc1ccc2c(c1)C(=O)c1ccccc1C2=O (stereo unspecified)	inactive
Cc1ccc2nc(N3CCN(Cc4nnnn4C4CCCC4)CC3)c(C#N)cc2c1	inconclusive [inhibitor, single point]
CCCSc1nnc(CSc2nc3ccccc3s2)n1-c1ccccc1	inconclusive [inhibitor, partial curve]
O=C(CC1(O)C(=O)Nc2cc(Cl)cc(Cl)c21)c1ccccc1O (stereo unspecified)	inactive
C/C(=N\NC(=O)c1cc2ccccc2cc1O)c1ccc(C)o1	inconclusive [inhibitor, single point]
CC(C)Sc1nc(O)c(Cc2ccccc2)c(=O)[nH]1	inactive
CCOC(=O)C1CCN(S(=O)(=O)c2ccc3c(c2)CC(C)N3C(=O)C2CCC2)CC1 (stereo unspecified)	inactive
O=C(O)COc1ccc(-c2nccc(-c3cccs3)n2)cc1	inconclusive [inhibitor, partial curve]
O=C1C(Cc2ccc3[nH]ccc3c2)NC(=S)N1c1ccccc1 (stereo unspecified)	inactive
CCCCC[C@]12Cc3cc(OC)c(OC)cc3C(O1)c1c(cc(C)n(-c3ccccc3)c1=O)O2	inconclusive [inhibitor, partial curve]

SMILES	Potency
CCN(CC)CCC(=O)Nc1ccc2c(c1)N(C(=O)CN(CC)CC)c1ccccc1CC2	active: 10.4 µM
Fc1cccc(F)c1-n1c(CN2CCOCC2)csc1=S	inactive
COc1cc(C)c(NC(=S)Nc2cccc(Cl)c2C)cc1OC	inactive
CCCCn1c(N)c(N(CCOC)C(=O)COC(=O)COc2c(C)cc(C)cc2C)c(=O)[nH]c1=O	inactive
CCCNC(=O)N1[C@H]2CC[C@@H]1C(C(=O)OC)=C(c1ccc(-c3ccccc3)c(F)c1)C2	active: 9.28 µM
Cc1cc(C)nc(SCc2nnc(SCC(=O)Nc3ccccc3C)n2Cc2ccco2)n1	inconclusive [inhibitor, single point]
CCN(c1ccccc1)S(=O)(=O)c1cccc(C(=O)Nc2ccc(C)cn2)c1	active: 8.28 µM
Cc1ccc(S(=O)(=O)Nc2cc3c4c(c2)C(C)C(=O)N4CCC3)cc1 (stereo unspecified)	active: 10.4 µM
CCN(CC)C(=O)c1ccc(NC(=O)c2cn(-c3ccccc3)nc2-c2ccc(OC)cc2)cc1	inconclusive [inhibitor, partial curve, poor fit]
C=CCc1ccc(OCCN2CCc3ccccc3C2)c(OC)c1	inconclusive [inhibitor, single point]
O=c1[nH]c(CN2CCOCC2)nc2scc(-c3ccccc3)c12	inconclusive [inhibitor, full curve, poor fit]
CCc1nnc(NC(=O)CSc2nnc(C)c(=O)n2N)s1	inactive
COc1ccc(S(=O)(=O)NCC2CCC(C(=O)N3CCC4(CC3)OCCO4)CC2)cc1 (stereo unspecified)	inactive
COc1ccc(OC)c(NC(=O)Nc2cc(NC(=O)Nc3cc(OC)ccc3OC)c(C)nc2C)c1	inconclusive [inhibitor, single point]
O=C(NC1CCCCC1)C(c1cccs1)N(Cc1cccs1)C(=O)c1cccs1 (stereo unspecified)	inconclusive [inhibitor, single point]
Nc1nc(Sc2ccc([N+](=O)[O-])cc2[N+](=O)[O-])n[nH]1	inconclusive [inhibitor, single point]
Cc1ccc2nc(N(CCCN(C)C)C(=O)c3ccc(S(=O)(=O)N4CCc5ccccc5C4)cc3)sc2c1	inconclusive [inhibitor, single point]
Cc1nn(Cc2ccccc2)c(C)c1C(=O)N1CCN(S(=O)(=O)/C=C/c2ccccc2)CC1	active: 11.7 µM
Cc1csc(C(C)N(C)C(=O)c2ccc(OC3CCN(Cc4ccccn4)CC3)cc2)n1 (stereo unspecified)	inconclusive [inhibitor, partial curve, poor fit]
O=C(C1CCN(S(=O)(=O)c2cccc3nsnc23)CC1)N1CCc2ccccc21	inactive
Cc1cc(NC(=O)CN(C)CC(=O)Nc2ccc(Cl)c(C(F)(F)F)c2)no1	inactive
COc1ccc(S(=O)(=O)N(C)C)cc1NC(=O)CCNC(=O)c1ccccc1OC	inconclusive [inhibitor, partial curve]
CC1=C(C(=O)NC2CC(C)(C)Cc3c2cnn3-c2cccc(F)c2)OCCO1 (stereo unspecified)	inactive
